Test system: Porcine red blood cells (RBCs)
Experiment: Hemolysis assay
Assay type: cell-based, pig
Settings: 1% porcine RBC in RPMI, 37°C for 30–45 min, absorbance 415 nm, test range 128 down to 1 μg/mL, Triton‐X100 = 100%; range in three independent experiments in duplicate, one maximum and one minimum data point dropped

Row | SMILES | HC50 (concentration that lyses 50% of the RBCs), porcine RBCs [µg/mL]
1 | CC[C@H](C)[C@H](NC(=O)[C@H](CCCCN)NC(=O)CNC(=O)[C@H](C)NC(=O)[C@@H](NC(=O)[C@H](CCCCN)NC(=O)[C@@H]1CCCN1C(=O)[C@H](CC(C)C)NC(=O)[C@@H](N)Cc1c[nH]c2ccccc12)[C@@H](C)CC)C(=O)N[C@@H](C)C(=O)NCC(=O)N[C@@H](CCCCN)C(=O)N[C@@H](CC(C)C)C(=O)N[C@@H](CC(C)C)C(=O)N[C@@H](CCCCN)C(=O)N[C@@H](CCCCN)C(=O)N[C@@H](CC(C)C)C(=O)N[C@@H](CC(C)C)C(=O)N[C@@H](CCCCN)C(=O)N[C@@H](CCCCN)C(=O)N[C@H](C(=O)N[C@@H](CCCCN)C(=O)N[C@@H](CCCCN)C(=O)N[C@@H](CCCCN)C(=O)O)[C@@H](C)CC [DeNo1018] | 128
2 | CC[C@H](C)[C@H](N)C(=O)N[C@@H](CC(C)C)C(=O)NCC(=O)N[C@@H](CCCCN)C(=O)N[C@@H](CC(C)C)C(=O)N[C@@H](CC(C)C)C(=O)N[C@@H](CCCCN)C(=O)N[C@@H](CCCCN)C(=O)N[C@@H](CC(C)C)C(=O)N[C@@H](CC(C)C)C(=O)N[C@@H](CCCCN)C(=O)N[C@@H](CCCCN)C(=O)N[C@@H](CC(C)C)C(=O)O [DeNo1057] | > 128
3 | CC(C)C[C@H](NC(=O)[C@H](CCCCN)NC(=O)[C@H](CCCCN)NC(=O)[C@H](CC(C)C)NC(=O)[C@H](CC(C)C)NC(=O)CNC(=O)[C@H](CCCCN)NC(=O)[C@H](CC(C)C)NC(=O)[C@H](CC(C)C)NC(=O)[C@H](CO)NC(=O)CNC(=O)[C@H](CC(C)C)NC(=O)[C@@H](N)C(C)C)C(=O)O [DeNo1046] | > 128
4 | CC[C@H](C)[C@H](NC(=O)[C@H](CO)NC(=O)[C@@H]1CCCN1C(=O)[C@H](CC(C)C)NC(=O)[C@@H](N)CCSC)C(=O)N[C@@H](CC(C)C)C(=O)NCC(=O)N[C@@H](C)C(=O)N[C@@H](CC(C)C)C(=O)N[C@@H](CC(C)C)C(=O)N[C@@H](CCCCN)C(=O)N[C@@H](CC(C)C)C(=O)N[C@@H](CC(C)C)C(=O)O [DeNo1040] | > 128
5 | CC[C@H](C)[C@H](NC(=O)[C@H](CCCCN)NC(=O)CNC(=O)[C@@H](NC(=O)[C@@H](NC(=O)[C@H](CCCCN)NC(=O)[C@H](C)NC(=O)[C@@H](NC(=O)[C@H](CCCCN)NC(=O)[C@H](CCCCN)NC(=O)[C@H](Cc1ccccc1)NC(=O)[C@H](CC(C)C)NC(=O)[C@H](CCCCN)NC(=O)[C@H](CCCCN)NC(=O)[C@H](Cc1ccccc1)NC(=O)[C@H](CC(C)C)NC(=O)[C@H](CO)NC(=O)[C@@H]1CCCN1C(=O)[C@H](CC(C)C)NC(=O)[C@@H](N)CCCNC(=N)N)[C@@H](C)CC)C(C)C)C(C)C)C(=O)N[C@@H](C)C(=O)N[C@@H](CCCCN)C(=O)N[C@@H](CCCCN)C(=O)N[C@H](C(=O)N[C@@H](CC(C)C)C(=O)N[C@@H](CCCCN)C(=O)N[C@@H](CCCCN)C(=O)O)[C@@H](C)CC [DeNo1026] | ≥ 128
6 | CC[C@H](C)[C@H](NC(=O)[C@H](CCCCN)NC(=O)[C@H](CCCCN)NC(=O)CNC(=O)[C@@H](NC(=O)[C@H](CCCCN)NC(=O)[C@H](CCCCN)NC(=O)[C@H](CC(C)C)NC(=O)[C@H](CC(C)C)NC(=O)[C@H](CO)NC(=O)[C@H](CC(C)C)NC(=O)[C@H](CC(C)C)NC(=O)CN)[C@@H](C)CC)C(=O)NCC(=O)N[C@@H](CCCCN)C(=O)N[C@@H](CC(C)C)C(=O)N[C@@H](CC(C)C)C(=O)O [DeNo1022] | ≥ 128
7 | CC(C)C[C@H](NC(=O)[C@H](CCCCN)NC(=O)[C@H](CCCCN)NC(=O)[C@H](CC(C)C)NC(=O)[C@H](CC(C)C)NC(=O)[C@H](CCCCN)NC(=O)[C@H](CCCCN)NC(=O)[C@H](CC(C)C)NC(=O)[C@H](CC(C)C)NC(=O)[C@H](CO)NC(=O)[C@@H]1CCCN1C(=O)[C@H](CC(C)C)NC(=O)[C@H](C)N)C(=O)O [DeNo1051] | > 128
8 | CC[C@H](C)[C@H](NC(=O)[C@H](CCCCN)NC(=O)[C@H](CCCCN)NC(=O)[C@H](CC(C)C)NC(=O)[C@@H](NC(=O)[C@H](CCCCN)NC(=O)[C@H](CCCCN)NC(=O)[C@H](CC(C)C)NC(=O)[C@H](CCCCN)NC(=O)[C@H](CCCCN)NC(=O)[C@H](CC(C)C)NC(=O)[C@H](CC(C)C)NC(=O)[C@H](CCCCN)NC(=O)CNC(=O)[C@H](Cc1ccccc1)NC(=O)[C@H](CC(C)C)NC(=O)[C@@H](N)CCCCN)[C@@H](C)CC)C(=O)N[C@@H](C)C(=O)N[C@@H](CCCCN)C(=O)N[C@@H](CCCCN)C(=O)N[C@H](C(=O)N[C@@H](CCCCN)C(=O)N[C@@H](CCCCN)C(=O)N[C@@H](CCCCN)C(=O)N[C@@H](CC(C)C)C(=O)O)[C@@H](C)CC [DeNo1021] | > 128
9 | CC(C)C[C@H](NC(=O)[C@H](CCCCN)NC(=O)[C@H](CCCCN)NC(=O)[C@H](CC(C)C)NC(=O)[C@H](CC(C)C)NC(=O)[C@H](CCCCN)NC(=O)[C@H](CCCCN)NC(=O)[C@H](CC(C)C)NC(=O)[C@H](CC(C)C)NC(=O)[C@H](CO)NC(=O)[C@H](CC(C)C)NC(=O)[C@H](CC(C)C)NC(=O)[C@H](C)N)C(=O)O [DeNo1049] | > 128
10 | CC[C@H](C)[C@H](NC(=O)CNC(=O)[C@@H]1CCCN1C(=O)[C@@H](NC(=O)[C@@H](NC(=O)[C@@H]1CCCN1C(=O)[C@@H]1CCCN1C(=O)[C@H](CC(C)C)NC(=O)[C@@H]1CCCN1)[C@@H](C)CC)[C@@H](C)CC)C(=O)N[C@@H](C)C(=O)NCC(=O)N[C@@H](CCCCN)C(=O)N[C@@H](CC(C)C)C(=O)N[C@@H](CC(C)C)C(=O)NCC(=O)NCC(=O)N[C@@H](CC(C)C)C(=O)N[C@@H](CC(C)C)C(=O)NCC(=O)N[C@@H](CC(C)C)C(=O)N[C@@H](CC(C)C)C(=O)N[C@@H](CCCCN)C(=O)N[C@@H](CCCCN)C(=O)N[C@@H](CC(C)C)C(=O)O [DeNo1031] | 128
